Measured values taken from PubChem BioAssay AID1159614 (National Center for Advancing Translational Sciences (NCATS), 2016).
Out of some 45,000 compounds screened, about 65 (0.1%) were called active. Calls come from the whole dose curve; as a rule, active = well fitted activation curve with a large enough effect; inconclusive = small, poorly fitted or top-dose-only effect; inactive = no such curve, though single readings can be large or run the other way. The list shows a part of the results.

These compounds were tested against Galactocerebrosidase (Homo sapiens) (UniProt P54803) (assay: A Novel Cell-Based Assay to Identify Small Molecules for B -Galactocerebrosidase). Details: 145M-Twi-hGALC-G270D cells (Twitcher mouse brain line with human GALC G270D), HMU-beta-Gal fluorescence, 48 h; series mostly up to 57.5 µM; activation: at the top concentration.
Chain of UniProt P54803 (P54803 whole entry, looked up): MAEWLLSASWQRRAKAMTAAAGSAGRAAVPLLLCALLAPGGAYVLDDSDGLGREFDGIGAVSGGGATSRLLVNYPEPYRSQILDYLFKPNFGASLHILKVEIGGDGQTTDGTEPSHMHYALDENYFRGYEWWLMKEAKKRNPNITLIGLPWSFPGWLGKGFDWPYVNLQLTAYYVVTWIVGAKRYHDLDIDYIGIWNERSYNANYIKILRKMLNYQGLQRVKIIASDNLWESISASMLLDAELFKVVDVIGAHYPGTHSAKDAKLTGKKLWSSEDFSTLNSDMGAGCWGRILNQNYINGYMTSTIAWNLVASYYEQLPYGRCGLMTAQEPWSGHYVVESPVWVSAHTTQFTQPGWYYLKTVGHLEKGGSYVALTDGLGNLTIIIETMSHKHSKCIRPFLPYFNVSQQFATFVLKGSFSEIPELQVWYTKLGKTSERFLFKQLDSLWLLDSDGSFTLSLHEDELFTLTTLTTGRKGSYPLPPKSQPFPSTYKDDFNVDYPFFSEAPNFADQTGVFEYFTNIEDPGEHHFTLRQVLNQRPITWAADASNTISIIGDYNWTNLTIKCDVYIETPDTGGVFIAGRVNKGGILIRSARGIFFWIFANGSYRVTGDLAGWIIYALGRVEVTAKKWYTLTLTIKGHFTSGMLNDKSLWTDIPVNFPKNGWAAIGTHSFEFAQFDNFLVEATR
In short: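 Brain-derived Twitcher mouse 145M-Twi cells stably expressing human GALC-G270D or wild-type GALC, treated live, then residual GALC activity read by fluorescence of HMU-b-Gal substrate (0.1 mM final) in citrate-phosphate buffer pH 5.2 with sodium taurocholate. Signal increase indicates enhancement.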
Note: 0% is about no effect; nearly all actives have a fitted effect of over 65% in size.

activation, inactive:
O=C(NCc1cccc(F)c1)C1=Cc2cc(Br)ccc2OC1 -13.7%
O=C(CSc1nc2c(oc3ccccc32)c(=O)n1Cc1ccco1)Nc1cccc(Cl)c1 -13.5%
COc1ccc(N(CC(=O)NCc2ccc(F)cc2)S(=O)(=O)c2c(C)n[nH]c2C)cc1 -12.7%
COc1ccc(OCCCn2c(=O)oc3ccc(C)cc32)cc1 -13.8%
CCc1ccc(NC(=O)c2ccc(F)c(S(=O)(=O)N3CCC(C)CC3)c2)cc1 -2.72%
Cc1ccc(C)c(Cn2nnc(C(=O)NCc3ccc(Cl)cc3Cl)c2N)c1 -18.7%
Cc1cc(C)cc(NC(=O)CN2C(=O)c3ccccc3Sc3ccc(C(=O)N4CCOCC4)cc32)c1 -9.08%
COc1cc2c(cc1NS(=O)(=O)c1cccc(C#N)c1)n(C)c(=O)n2C -4.23%
Cc1cn(C)c(CC(=O)Nc2cccc(Cl)c2C)c1C(=O)O -7.66%
COc1ccc(CCNC(=O)CCCCCn2c(SCC(N)=O)nc3cc4c(cc3c2=O)OCO4)cc1OC -18.7%
Cc1ccc(S(=O)(=O)N2CCCc3cc(NC(=O)c4ccccc4Cl)ccc32)cc1 -10.3%
CCN(CC)S(=O)(=O)c1ccc2c(c1)N(CC(=O)Nc1ccc(F)cc1)C(=O)CO2 -16.3%
CCCCc1oc2ccc(NS(C)(=O)=O)cc2c1C(=O)c1ccc(OCCCN(CCCC)CCCC)cc1 -12.9%
Cc1ccc(C)c(N(C)C(=O)C2CCN(c3ncnc4c3nc3n4CCCCC3)CC2)c1 -4.05%
CCN(CC)S(=O)(=O)c1nnc(NC(=O)COc2cccc(C)c2)s1 -2.29%
Cn1cnc(S(=O)(=O)N2CCCC(C(=O)Nc3cccc(C#N)c3)C2)c1 (stereo unspecified) -14.4%
COc1ccc(NC(=O)N(Cc2nnc3n2CCCCC3)c2ccc(OC)c(Cl)c2)cc1 -0.0488%
O=C(Nc1c(C(=O)c2ccc(F)cc2)oc2ccccc12)c1cc(-c2ccccc2)on1 29.3%
COc1cccc(N2CCN(c3ccc4nnc(CCC(=O)O)n4n3)CC2)c1 -7.29%
CCc1ccc(S(=O)(=O)c2c(C(=O)c3ccc(C)c(C)c3)cnc3ccccc23)cc1 -17.5%
CCOc1ccc(CNC(=O)c2ccc3nc(CC)c(CC)nc3c2)cc1OC -1.99%
CCn1c(=O)cc(OCC(=O)Nc2cc(OC)c(OC)c(OC)c2)c2ccccc21 -14.5%
COCCNC(=O)CSc1nc2ccccc2nc1Cc1ccc(C)cc1 -1.2%
O=C(Cn1c(=O)n(-c2ccccc2)c(=O)c2c3c(sc21)CCCC3)Nc1cccc(F)c1 -10.8%
CN(C)c1ccc(CNC(=O)c2ccc(NC(=O)c3nsc4ccccc34)cc2)cc1 -5%
COc1cccc(Cc2nc3ccccc3nc2SCC(=O)Nc2ccccc2F)c1 -9.78%
Cc1cccc(NC(=O)Cn2c(=O)n(CCc3ccccc3)c(=O)c3sc4ccccc4c32)c1 -3.15%
CC(C)C1N=C2c3ccccc3N=C(SCC(=O)NCc3ccc(F)cc3)N2C1=O (stereo unspecified) -28.1%
CCC12CN3CC(C)(CN(C1)C3c1c(C)n(C)c3ccccc13)C2=O (stereo unspecified) -7.56%
Cc1c(C(=O)NCc2ccccc2Cl)cccc1-n1cnc2cccnc21 -16.4%
Cc1cccc(CNC(=O)c2ccc3nc(-c4ccccc4)c(-c4ccccc4)nc3c2)c1 -7.63%
CCC1(c2ccccc2)C(=O)NCNC1=O -17.2%
COc1cc(NC(=O)c2cc(C3CC3)nc3c2c(C)nn3-c2ccc(C)cc2)cc(OC)c1 -11.3%
Nc1c(-c2nc(-c3ccc(Cl)cc3)no2)nnn1-c1ccc(C(F)(F)F)c(Cl)c1 -5.57%
Cc1cccc(C)c1OCc1nc2c3cnn(-c4ccccc4Br)c3ncn2n1 4.8%
O=C(CSc1nc2c([nH]c3ccccc32)c(=O)n1-c1ccc(F)cc1)N1CCCc2ccccc21 -1.42%
CCOC(=O)Cn1c(=O)n(C2CCCCC2)c2nc(-c3ccccc3Cl)nc(C(N)=O)c21 16%
CCC(CC)C(=O)Nc1nnc2n1CCS2 -13%
COc1ccc(CCN2C(=O)c3[nH]nc(-c4ccccc4O)c3C2c2ccc(O)c(OC)c2)cc1 (stereo unspecified) -9.31%
COc1ccc(-c2c(C)nn3c(-c4ccccc4)cc(-c4ccccc4)nc23)cc1OC -18.8%
COC(=O)c1ccc(NC(=O)CCNS(=O)(=O)c2cccc3nsnc23)cc1 1.96%
O=C(NC1CCCCC1)c1cc(Nc2ccccc2)nc2ccccc12 -16%
COc1ccccc1C(=O)NCC1(N2CCN(C)CC2)CCCCC1 -14.1%
Cc1ccc(C)c(NC(=O)N2CCC(N3CCN(Cc4ccc(F)cc4)C(=O)C3=O)CC2)c1 -14.1%
COc1ccccc1CNC(=O)c1ccc(CN2CC(=O)N3CCCCC3C2=O)cc1 (stereo unspecified) -21.9%
CCN(CC)c1ccc(NC(=O)CN2CCN(CC(=O)Nc3ccccc3OC)CC2)cc1 -19.1%
Cc1cc2c(cc1S(=O)(=O)N(C)CC(=O)Nc1cccc(C#N)c1)OCC(=O)N2 -9.86%
CC1=Nc2cc(C(=O)NC3CCCC3)ccc2Sc2ccc(Br)cc21 -9.46%
COCCCNC(=O)C1CCCN(S(=O)(=O)c2ccc3c(c2)oc(=O)n3C)C1 (stereo unspecified) -2.68%
CCOC(=O)c1cccc(NC(=O)CCn2nc(C)c3c(C)n(-c4ccccc4)nc3c2=O)c1 -22.2%
CCOCCCNC(=O)c1c[nH]c2ccc(S(=O)(=O)Nc3cccc(Cl)c3C)cc2c1=O -13.3%
Cn1c(=O)oc2cc(S(=O)(=O)N3CCCC(C(=O)N4CCN(c5ccccc5F)CC4)C3)ccc21 (stereo unspecified) -7.7%
CCOC(=O)N1CCc2c(sc3c2c(=O)n(-c2ccc(Cl)cc2)c(=O)n3Cc2cccc(C)c2)C1 -7.89%
Cc1c(NC(=O)c2ccccc2)cc(C(C)C)c(O)c1S(=O)(=O)c1ccc(Cl)cc1 -11.6%
Fc1ccc(Nc2ncnc3c2nc2n3CCCC2)cc1 -1.68%
CCOCCCn1c(SCC(=O)NCCCOC)nc2c(sc3ccccc32)c1=O 33%
Cc1ccccc1Nc1cc(C(=O)NC2CCCCC2)c2ccccc2n1 -14.2%
CSc1cccc(Nc2cc(C(=O)NCCCN(Cc3ccccc3)C(C)C)c3ccccc3n2)c1 -13.2%
COc1ccccc1N1CCN(S(=O)(=O)c2cc3[nH]c(=O)c(=O)[nH]c3cc2C)CC1 1.78%
O=C(NCCS(=O)(=O)N1CCN(c2ccc(F)cc2)CC1)c1cc(=O)c2ccccc2o1 1.32%
Cc1ccc(C)c(NC(=O)C(Cc2ccccc2)N2Cc3ccccc3C2=O)c1 (stereo unspecified) -9.91%
Cc1ccc(CCNc2ncnc3onc(C)c23)cc1 -17.4%
Cc1ccc2occ(CC(=O)N(Cc3ccc(N(C)C)cc3)C3CCS(=O)(=O)C3)c2c1 (stereo unspecified) -16.7%
CCOc1ccc(CNC(=O)CCC(=O)N2CCSc3ccccc32)cc1 3.9%
Cc1ccc(Cl)cc1N(C)C(=O)c1cnc(N2CCOCC2)c2ccccc12 8.19%
COc1ccc(N2CCN(C(=O)c3ccc4nc(N5CCC(C)CC5)sc4c3)CC2)cc1 -13.4%
CCN(CC)C(=O)C1CCCN(c2ncnc3onc(C)c23)C1 (stereo unspecified) -11.3%
COC(=O)c1cc2oc3ccccc3c2n1Cc1c(F)cccc1Cl -4.85%
COc1ccc2nc(N3CCN(C(=O)C4CC4)CC3)sc2c1 -14.9%
COc1ccc(NC(=O)N2CCc3c([nH]c4ccc(OC)cc34)C2c2ccc(OC)cc2)cc1 (stereo unspecified) -12.3%
CCc1cccc(NC(=O)CN2CCCN(Cc3cccc(C)c3)S2(=O)=O)c1 -8.48%
CC(NC(=O)c1sc2ncccc2c1-n1cccc1)c1ccccc1 (stereo unspecified) -27.9%
COc1cccc(-c2nc3c(C#N)c[nH]n3c2NC2CCCCC2)c1OC -14.2%
Cc1ccc(Cn2c(=O)n(CC3CCC(C(=O)N4CCOCC4)CC3)c(=O)c3sccc32)cc1 (stereo unspecified) -9.17%
COc1cc(Nc2c(C#N)cnc3cc(OCCCN4CCN(C)CC4)c(OC)cc23)c(Cl)cc1Cl -22.3%
O=C(NCC(c1cccnc1)N1CCN(Cc2ccccc2)CC1)C(=O)Nc1cccc(F)c1 (stereo unspecified) -18.7%
CCOC(=O)CC(NC(=O)Cn1nnc(-c2ccc(C(F)(F)F)cc2)n1)c1ccc(C)cc1 (stereo unspecified) -9.42%
O=C(CC1Oc2ccc(Cl)cc2NC1=O)NCc1ccccc1 (stereo unspecified) -21.2%
COCCN1C(=O)N(c2cccc(OC)c2)C(=O)C1CC(=O)Nc1ccccc1 (stereo unspecified) -9.32%
COc1cc2ccccc2cc1C(=O)N1CCN(c2nc3c(F)cccc3s2)CC1 -2.98%
O=C(NCc1ccc(Cl)cc1)C(=O)NCC(c1ccc2c(c1)OCO2)N1CCOCC1 (stereo unspecified) -7.6%
CC(=O)Nc1ccc(NC(=O)c2csnn2)cc1 -8.8%
CCCCc1nn2c(=O)cc(COC(=O)c3cccc(NC(=O)c4cccs4)c3)nc2s1 0.681%
CCN(CC)C(=O)c1sc2c(c1C)c(=O)n(-c1ccc(C)c(C)c1)c(=O)n2CC(=O)Nc1ccc(OC)cc1OC -26.1%
Cc1cc(F)ccc1NC(=O)CCS(=O)(=O)c1cc2c3c(c1)CCN3C(=O)CC2 0.0197%
COc1ccc(OC)c(CNS(=O)(=O)c2cc(-c3onc(C)c3C)ccc2C)c1 -8.29%
O=C(c1ccccc1)N1CCC(c2nc3ccccc3o2)CC1 -2.09%
CCOc1ccc2c(c1)c(=O)c(C(=O)c1ccccc1)cn2Cc1ccccc1F -21.6%
CC(=O)c1ccc(NC(=O)c2cc3c([nH]c2=O)CC(c2ccccc2)CC3=O)cc1 (stereo unspecified) -16.6%
CN1C(=O)Cc2cc(S(=O)(=O)CCC(=O)Nc3ccc(Cl)cc3)ccc21 -9.83%
COc1ccc(CCNC(=O)c2cnn(-c3cccc(C)c3)c2C2CCNCC2)cc1OC -20.3%
Cc1ccc(S(=O)(=O)c2[nH]c(-c3ccccc3)nc2SC(C)C(=O)O)cc1 (stereo unspecified) -11.9%
COc1ccc(N2CCN(CCCNC(=O)c3nnc(Cc4ccccc4Cl)o3)CC2)cc1 -10.5%
CCS(=O)(=O)N1CC(=O)N(c2cc(C)cc(C)c2)C(C)(C(=O)NC2CCCCC2)C1 (stereo unspecified) -10.3%
Cc1cc(C)n2c(Nc3ccc4c(c3)OCCO4)c(-c3ccccc3)nc2n1 -17.7%
CC(=O)c1ccc(NC(=O)CSc2nnc(-c3ccncc3)n2-c2ccccc2)cc1 -11%
